# The supplement of paper PMC4604168 (melanoma cell lines)
# This is one part of the list. Repeats are few or missing, and single values can be far off.
# What was measured:
# Test in all cases: cell count relative to DMSO control; melanoma cells; higher = more viable cells
# Details in all cases: library dose: standard library concentration; 72 h
# G361 = test system: G361
# IPC-298 = test system: IPC-298
# IST-MEL1 = test system: IST-MEL1
# LB2518-MEL = test system: LB2518-MEL
# LOXIMVI = test system: LOXIMVI
# MEL-HO = test system: MEL-HO
# MZ2-MEL = test system: MZ2-MEL
# MeWo = test system: MeWo
# RPMI7951 = test system: RPMI7951
# RVH-421 = test system: RVH-421
# SkMel28 = test system: SkMel28
# SkMel2 = test system: SkMel2
# SkMel30 = test system: SkMel30
# SkMel5 = test system: SkMel5
# UACC257 = test system: UACC257
# UACC62 = test system: UACC62
# WM115 = test system: WM115
# WM1716 = test system: WM1716
# WM1745 = test system: WM1745
# WM3526 = test system: WM3526
# 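Also: cells treated in 1,536-well plates, then fixed and DAPI-stained, with nuclei counted from automated high-throughput microscope images.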
Compound,cell count (G361) [%],cell count (IPC-298) [%],cell count (IST-MEL1) [%],cell count (LB2518-MEL) [%],cell count (LOXIMVI) [%],cell count (MEL-HO) [%],cell count (MZ2-MEL) [%],cell count (MeWo) [%],cell count (RPMI7951) [%],cell count (RVH-421) [%],cell count (SkMel28) [%],cell count (SkMel2) [%],cell count (SkMel30) [%],cell count (SkMel5) [%],cell count (UACC257) [%],cell count (UACC62) [%],cell count (WM115) [%],cell count (WM1716) [%],cell count (WM1745) [%],cell count (WM3526) [%]
"Clc1ccc(Nc2nnc(Cc3ccncc3)c3ccccc23)cc1 [vatalanib] + NC(=O)Nc1cc(-c2cccc(F)c2)sc1C(=O)N[C@H]1CCCNC1 [AZD7762] (first compound 10 µM, partner dose 0.1 µM)",61.8,63.5,68.7,61.9,73.9,63,85.8,59.9,31.1,93.3,46.9,86.4,83.6,66.1,53.4,56.2,79.7,69.2,64,60.8
"COCC[n+]1c2c(n(Cc3cnccn3)c1C)C(=O)c1ccccc1C2=O + O=C(Nc1ccccc1)c1cc([N+](=O)[O-])ccc1Cl [GW9662] (first compound 0.002 µM, partner dose 10 µM)",72.8,49.7,44.3,22.4,73.6,84.6,28.1,38.5,37.5,85.6,31.6,33.6,44.7,41.6,21.6,68.3,42.6,53.2,68.6,34.8
"Clc1ccc(Nc2nnc(Cc3ccncc3)c3ccccc23)cc1 [vatalanib] + N#Cc1c(O)c2c(-c3ccc(-c4ccccc4O)cc3)csc2[nH]c1=O [A769662] (first compound 10 µM, partner dose 10 µM)",87.1,86.3,83.3,84.3,86.9,79.5,90.4,70.7,80.6,16,80.6,86,82.4,73.6,82.7,82.5,84.2,85.6,,87.2
"Clc1ccc(Nc2nnc(Cc3ccncc3)c3ccccc23)cc1 [vatalanib] + COc1ccc2c(c1)CCC1C2CCC2(C)C(NCCCCCCN3C(=O)C=CC3=O)CCC12 [U73122] (first compound 10 µM, partner dose 2 µM)",68.1,68.2,71.1,80.6,63.2,56.7,65.1,51.2,22.3,71.4,64.8,59.1,89.7,45.8,75.4,61.7,53.8,73.7,,54
"Cn1c(Nc2ccc(C(F)(F)F)cc2)nc2cc(Oc3ccnc(-c4ncc(C(F)(F)F)[nH]4)c3)ccc21 + CCN(CC)CCCCNc1ncc2cc(-c3cc(OC)cc(OC)c3)c(NC(=O)NC(C)(C)C)nc2n1 [PD173074] (first compound 0.4 µM, partner dose 0.5 µM)",30.3,60.9,86.3,35.4,64.6,66,65.4,57.7,43.5,55.9,36,55.8,79.7,47.5,84.9,59.2,31.7,63.8,54.6,46.8
"Cn1c(Nc2ccc(C(F)(F)F)cc2)nc2cc(Oc3ccnc(-c4ncc(C(F)(F)F)[nH]4)c3)ccc21 + N#Cc1c(O)c2c(-c3ccc(-c4ccccc4O)cc3)csc2[nH]c1=O [A769662] (first compound 0.4 µM, partner dose 10 µM)",27.8,47.1,75.2,29.7,88.8,59.4,57.6,62.4,65.7,19.7,47.7,66.7,74.2,45.1,83.1,53.6,49.9,69.1,59.2,45
"OCc1c[nH]c2ccccc12 [Indole-3-carbinol] + C#Cc1cccc(Nc2ncnc3cc(OCCOC)c(OCCOC)cc23)c1 [erlotinib] (first compound 4 µM, partner dose 4 µM)",75.2,59.3,91.1,59.9,103,81.9,67.9,70.8,75.9,99.1,72.1,76.5,67.3,46,104,72.9,83.3,92.7,45.5,76.6
"C#Cc1cccc(Nc2ncnc3cc(OCCOC)c(OCCOC)cc23)c1 [erlotinib] + C[C@]1(c2nc3c(C(N)=O)cccc3[nH]2)CCCN1 [Veliparib] (first compound 4 µM, partner dose 7 µM)",60.9,57.3,79.9,60.3,73.8,70.2,79.2,63.9,58.4,65,45.5,88.6,47.3,43.7,84.2,29.7,68.1,74.3,43.3,63.2
"Clc1ccc(Nc2nnc(Cc3ccncc3)c3ccccc23)cc1 [vatalanib] + COC(=O)c1sccc1S(=O)(=O)Nc1ccc(Nc2ccccc2)cc1OC [GSK0660] (first compound 10 µM, partner dose 5 µM)",64.8,50.4,85.8,73.2,177,59.1,46.1,62,92.7,85.2,68.5,72.4,83.9,63.6,55.6,74.9,82.2,95.1,,73.9
"OCc1c[nH]c2ccccc12 [Indole-3-carbinol] + c1cc(-c2cnn3cc(-c4ccc(OCCN5CCCCC5)cc4)cnc23)ccn1 [Dorsomorphin] (first compound 4 µM, partner dose 2 µM)",72.3,95.6,100,82.1,91,87,69.7,80.3,83.9,103,89.6,104,109,67.9,68.5,82.1,85.7,92.2,,94
"Clc1ccc(Nc2nnc(Cc3ccncc3)c3ccccc23)cc1 [vatalanib] + COc1ccc(-c2ccc3c(N4CCOCC4)nc(N4C[C@@H](C)O[C@@H](C)C4)nc3n2)cc1CO [KU0063794] (first compound 10 µM, partner dose 0.1 µM)",65.8,63.2,86.9,48,81.8,58,54.5,62.1,81.3,90.2,72.8,76.8,96.4,58.1,74.3,92.3,85.7,78.5,,78.2
"Clc1ccc(Nc2nnc(Cc3ccncc3)c3ccccc23)cc1 [vatalanib] + O=C(Nc1ccccc1)c1cc([N+](=O)[O-])ccc1Cl [GW9662] (first compound 10 µM, partner dose 10 µM)",49.8,67.3,67.7,58.9,45.9,54.4,50.9,35.6,63.3,55.8,60.5,65.8,61.8,60.3,60.5,59,63.7,70.5,,70.7
"Clc1ccc(Nc2nnc(Cc3ccncc3)c3ccccc23)cc1 [vatalanib] + O=C1NC(=O)/C(=C/c2ccc(-c3ccc(F)cc3O)o2)S1 [AS252424] (first compound 10 µM, partner dose 5 µM)",63.6,71.7,83.8,99.6,66.8,64.1,82.4,70.4,77.7,84,82.6,69.9,94.9,68.2,72.7,129,93.6,95.4,,68.3
"OCc1c[nH]c2ccccc12 [Indole-3-carbinol] + COc1ccc(-c2ccc3c(N4CCOCC4)nc(N4C[C@@H](C)O[C@@H](C)C4)nc3n2)cc1CO [KU0063794] (first compound 4 µM, partner dose 0.1 µM)",92.9,70.5,85.1,100,103,78.2,73.4,87.3,89.5,86.6,82,83.5,87.4,58.7,94.1,70.7,84.6,104,,91.8
"OCc1c[nH]c2ccccc12 [Indole-3-carbinol] + O=c1cc(-c2cccc3c2Sc2ccccc2S3)oc(N2CCOCC2)c1 [KU55933] (first compound 4 µM, partner dose 5 µM)",98.5,96.5,110,89.1,94.2,90.4,102,95.5,87.5,129,76.3,79.8,103,71.4,80.3,87.6,92.2,101,,91.5
"Clc1ccc(Nc2nnc(Cc3ccncc3)c3ccccc23)cc1 [vatalanib] + CC(C)CCN1c2nc(Nc3cc(F)c(O)c(F)c3)ncc2N(C)C(=O)C1C [BID1870] (first compound 10 µM, partner dose 1 µM)",59.9,65.1,79.9,92.4,64.7,57.1,83.5,65.5,90,68.9,65.6,69.3,82.9,69.2,81.3,95.5,89.9,80.8,,63.3
"COCC[n+]1c2c(n(Cc3cnccn3)c1C)C(=O)c1ccccc1C2=O + CN(C)S(=O)(=O)c1ccc2c(c1)/C(=C/c1cc3c([nH]1)CCCC3)C(=O)N2 [SU6656] (first compound 0.002 µM, partner dose 2 µM)",61.4,47,41.4,,74.6,76.9,,57.5,40.2,68.5,41.8,,61.5,52.9,28.4,72.2,37.7,45.5,53.8,52.5
"OCc1c[nH]c2ccccc12 [Indole-3-carbinol] + O=C(Nc1ccccc1)c1cc([N+](=O)[O-])ccc1Cl [GW9662] (first compound 4 µM, partner dose 10 µM)",81.5,97.4,102,90.6,67.4,84.5,90.6,81.1,84.9,74.6,86.1,85.3,86.6,72.6,88.2,70.2,78.4,92.1,,79.1
